{
  "source": "PubChem BioAssay AID1476",
  "about": "(National Center for Advancing Translational Sciences (NCATS), 2009)",
  "note": "The campaign covered roughly 200,000 compounds. About 4,500 (2.2%) were called active. The inconclusive results got no clear call from the source; some entries with a clear call stand among them for comparison. The call rests on the fitted dose curve; in most records, active means well fitted inhibition curve with a large enough effect; inconclusive means small, poorly fitted or top-dose-only effect, or effect the other way; inactive means flat fitted curve, though single readings scatter. A potency beside an inconclusive call is a rough fit, not a confirmed value. Potency means the concentration at half of the fitted maximal effect; tags describe the fitted curve by direction and shape.",
  "data": [
    {"target": "Cruzipain (Trypanosoma cruzi) (UniProt P25779)", "sequence (P25779 whole entry, looked up)": "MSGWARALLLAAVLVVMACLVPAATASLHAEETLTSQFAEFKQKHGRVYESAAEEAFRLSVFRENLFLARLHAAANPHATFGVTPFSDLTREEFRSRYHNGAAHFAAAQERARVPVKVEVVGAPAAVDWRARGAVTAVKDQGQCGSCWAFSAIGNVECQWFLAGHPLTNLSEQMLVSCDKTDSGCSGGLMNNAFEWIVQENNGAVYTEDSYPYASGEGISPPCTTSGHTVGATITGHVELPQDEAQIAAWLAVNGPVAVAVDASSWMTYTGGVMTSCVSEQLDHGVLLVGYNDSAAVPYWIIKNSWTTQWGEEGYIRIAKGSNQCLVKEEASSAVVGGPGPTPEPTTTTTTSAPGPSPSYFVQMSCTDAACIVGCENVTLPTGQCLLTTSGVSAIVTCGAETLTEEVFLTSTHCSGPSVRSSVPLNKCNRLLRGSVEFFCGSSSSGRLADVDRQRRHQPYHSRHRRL", "assay": "qHTS Assay for Promiscuous and Specific Inhibitors of Cruzain (without detergent); further: nearly all actives have a fitted effect of over 40% in size;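 on max response, negative = inhibition: plate controls were enzyme without inhibitor for no effect and buffer without enzyme for full effect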", "details": "purified cruzain, Z-FR-AMC fluorescence, no detergent", "outline": "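Detergent-free condition (0.00005% Triton X-100) in acetate buffer pH 5.5 with DTT. 1.5 nM enzyme and compound were pre-mixed 15 min, then 2 uM Z-FR-AMC substrate added; reaction progress from fluorescence change between first and third reads (60 s).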", "values": [
      {"smiles": "Clc1ccc2[nH]c3c(NCCN4CCOCC4)ncnc3c2c1", "Potency": "active: 15.8 µM"},
      {"smiles": "N#Cc1c[nH]n2c(NC3CCCC3)c(-c3ccc(Cl)cc3)nc12", "Potency": "inconclusive: 39.8 µM [activator, single point]"},
      {"smiles": "Cc1csc(-c2cnn(-c3ccccc3)c2NC(=O)c2cccc(C(F)(F)F)c2)n1", "Potency": "inconclusive: 39.8 µM [activator, single point]"},
      {"smiles": "COC(=O)[C@@]1(Cc2ccc(F)cc2)[C@H]2c3cc(C(=O)N4CCCC4)n(CC4CC4)c3C[C@H]2CN1C(=O)c1ccccc1", "Potency": "inconclusive: 31.6 µM [activator, single point]"},
      {"smiles": "Cc1cc(O)c(-c2cc(C(=O)NCc3ccc4c(c3)OCO4)[nH]n2)cc1C", "Potency": "inconclusive: 39.8 µM [inhibitor, single point]"},
      {"smiles": "COc1ccccc1-c1nnc2sc(-c3cc4ccccc4o3)nn12", "Potency": "inconclusive: 39.8 µM [activator, single point]"},
      {"smiles": "CCn1cc(C(=O)N2CCN(c3ccc(OC)cc3)CC2)c(=O)c2cc(S(=O)(=O)N3CCOCC3)ccc21", "Potency": "inconclusive: 20 µM [activator, partial curve, poor fit]"},
      {"smiles": "Cc1c(C(=O)N2CCC(C)CC2)c(S(=O)(=O)Nc2ccc(OC(F)(F)F)cc2)c(C)n1C", "Potency": "inconclusive: 39.8 µM [activator, single point]"},
      {"smiles": "CCOc1ccccc1N1CCN(C(=O)CCCN2C(=O)c3cccc4cccc(c34)C2=O)CC1", "Potency": "inconclusive: 25.1 µM [activator, single point]"},
      {"smiles": "CC1CCCCN1C(=O)CSc1nnc(-c2c[nH]c3ccccc23)o1", "note": "(stereo not drawn)", "Potency": "inconclusive: 39.8 µM [activator, single point]"},
      {"smiles": "COc1ccc(OC)c(C(=O)c2ccc(C(=O)Nc3cccc4ccccc34)cc2)c1", "Potency": "active: 25.1 µM"},
      {"smiles": "FC(F)(F)c1ccccc1-c1ccc2ncnc(N3CCOCC3)c2c1", "max response, negative = inhibition": "inactive: 11.8%"},
      {"smiles": "Cc1cc2c(cc3c(SCc4ccccc4Cl)nnc(C)n32)o1", "max response, negative = inhibition": "inactive: 4.63%"},
      {"smiles": "Cc1cc(NC(=O)c2ccc(NC(=O)CCS(=O)(=O)c3cccs3)cc2)ccc1Br", "Potency": "inconclusive: 31.6 µM [inhibitor, single point]"},
      {"smiles": "COc1cccc(Cn2c(=O)c(C)nc3cnc(Nc4ccccc4)nc32)c1", "Potency": "inconclusive: 20 µM [inhibitor, single point]"},
      {"smiles": "O=C(NCc1ccco1)C1CCN(C(=O)c2cc3sccc3n2Cc2ccc(F)cc2)CC1", "Potency": "inconclusive: 10 µM [activator, single point]"},
      {"smiles": "CC(=O)Nc1cccc(C(=O)NCc2ccc3c(c2)CCN3C(=O)c2ccc(F)cc2)c1", "Potency": "inconclusive: 20 µM [activator, single point]"},
      {"smiles": "COc1cc(C(C)=O)ccc1COc1ccc(C(=O)OCC(=O)NC2CCS(=O)(=O)C2)cc1OC", "note": "(stereo not drawn)", "Potency": "inconclusive: 39.8 µM [activator, single point]"},
      {"smiles": "CCCN(CCC)S(=O)(=O)c1ccc(C(=O)Nc2cc3oc4ccccc4c3cc2OC)cc1", "Potency": "active: 15.8 µM"},
      {"smiles": "COc1cc(-c2nnc(SCC(=O)c3ccc(C)cc3)o2)cc(OC)c1OC", "Potency": "inconclusive: 39.8 µM [activator, single point]"},
      {"smiles": "O=C(COC(=O)c1ccc2c(c1)C(=O)N(Cc1ccncc1)C2=O)Nc1ccccc1[N+](=O)[O-]", "Potency": "inconclusive: 25.1 µM [inhibitor, single point]"},
      {"smiles": "CC1(C)O[C@@H]2[C@@H](O1)C(c1ccccc1)(c1ccccc1)OP(=O)(O)OC2(c1ccccc1)c1ccccc1", "Potency": "inconclusive: 25.1 µM [activator, partial curve]"},
      {"smiles": "CCOC(=O)c1c(S(=O)(=O)N2CCC(C(=O)N3CCN(c4ccc(F)cc4)CC3)CC2)c(C)n(C)c1C", "Potency": "inconclusive: 20 µM [activator, partial curve]"},
      {"smiles": "CCOc1ccc(-c2nc(SCC(=O)Nc3cc(F)ccc3F)n3[nH]c(=O)cc3n2)cc1", "max response, negative = inhibition": "inactive: -9.42%"},
      {"smiles": "O=[N+]([O-])c1cccc(C2=NCCC(c3ccccc3)O2)c1", "note": "(stereo not drawn)", "Potency": "inconclusive: 25.1 µM [inhibitor, single point]"},
      {"smiles": "COCCNC(=O)C1=CC(c2ccc3c(c2)OCO3)=NS(=O)(=O)N1C", "max response, negative = inhibition": "inactive: 8.05%"},
      {"smiles": "CCn1c2ccccc2c2cc(NC(=O)c3cccc(OC)c3)ccc21", "Potency": "inconclusive: 39.8 µM [inhibitor, single point]"},
      {"smiles": "CC(C)Oc1ccc(CNC(=O)Cn2nc(N3CCN(c4ccccc4)CC3)ccc2=O)cc1", "Potency": "inconclusive: 39.8 µM [activator, single point]"},
      {"smiles": "CCc1ccc(NCc2cc3ccc(OC)cc3n(CC(=O)Nc3ccc(C)c(Cl)c3)c2=O)cc1", "Potency": "active: 25.1 µM"},
      {"smiles": "CCC(C)Sc1nc(O)c(Cc2ccccc2)c(=O)[nH]1", "note": "(stereo not drawn)", "Potency": "inconclusive: 31.6 µM [inhibitor, single point]"},
      {"smiles": "CCOC(=O)N1CCC(NC(=O)CS(=O)Cc2nc(-c3ccc(OC)c(OC)c3)oc2C)CC1", "note": "(stereo not drawn)", "Potency": "inconclusive: 39.8 µM [activator, single point]"},
      {"smiles": "Cc1ccc(C(=O)NCc2ccco2)cc1Br", "max response, negative = inhibition": "inactive: 2.02%"},
      {"smiles": "COc1cccc(NC(=O)Cn2c(=O)n(CCc3ccc(OC)c(OC)c3)c(=O)c3ccccc32)c1", "max response, negative = inhibition": "inactive: 5.13%"},
      {"smiles": "Cc1[nH]c2c(Cl)cccc2c1CCN", "max response, negative = inhibition": "inactive: 4.92%"},
      {"smiles": "N#Cc1c(NC(=S)NC(=O)C2CCCC2)sc2c1CCCCC2", "Potency": "inconclusive: 39.8 µM [inhibitor, single point]"},
      {"smiles": "CCC[C@H](N[C@@H](C)C(=O)N1[C@@H]2CCCC[C@H]2C[C@H]1C(=O)O)C(=O)OCC", "max response, negative = inhibition": "inactive: 5.88%"},
      {"smiles": "COc1ccc(C(=O)c2ccccc2)c(O)c1O", "max response, negative = inhibition": "inactive: -2.96%"},
      {"smiles": "Cc1ccc(NC(=O)C(=O)NCC2(c3ccccc3)CCCC2)cc1C", "Potency": "inconclusive: 31.6 µM [inhibitor, single point]"},
      {"smiles": "O=c1[nH]c2cc3c(cc2cc1C(c1nnnn1CC1CCCO1)N1CCCC1)OCO3", "note": "(stereo not drawn)", "Potency": "inconclusive: 25.1 µM [inhibitor, single point]"},
      {"smiles": "O=C(CNc1ccc(Br)cc1)c1ccccc1", "Potency": "inconclusive: 31.6 µM [inhibitor, single point]"},
      {"smiles": "COc1cccc(NC(=S)N2CCN(C(c3ccccc3)c3ccccc3)CC2)c1", "Potency": "inconclusive: 39.8 µM [inhibitor, single point]"},
      {"smiles": "Cc1ccc(CN2COc3c(Cl)cc4c(-c5ccccc5)cc(=O)oc4c3C2)cc1", "max response, negative = inhibition": "inactive: -1.13%"},
      {"smiles": "Cn1c(=N)c(S(=O)(=O)c2ccccc2)cc2c(=O)n3ccccc3nc21", "Potency": "inconclusive: 7.94 µM [inhibitor, single point]"},
      {"smiles": "Cc1nc2c(ccc3nc(NC(=O)C(c4ccccc4)c4ccccc4)sc32)s1", "Potency": "inconclusive: 39.8 µM [inhibitor, single point]"},
      {"smiles": "Cc1cc(C)cc(C(=O)NCCn2cc(SCC(=O)N3CCOCC3)c3ccccc32)c1", "Potency": "inconclusive: 39.8 µM [activator, single point]"},
      {"smiles": "COc1cc(-c2nc3ccc(Cl)cn3c2Nc2ccc3c(c2)OCCO3)ccc1O", "Potency": "inconclusive: 39.8 µM [inhibitor, single point]"},
      {"smiles": "CC(=O)OC1CC(OC(C)=O)[C@]2(C)C(CC(OC(C)=O)[C@]3(C)C2CC[C@@]2(C)C(c4ccoc4)C(=O)C4O[C@]432)C1(C)C", "note": "(stereo partly drawn)", "Potency": "inconclusive: 25.1 µM [activator, single point]"},
      {"smiles": "Cc1ccc(OCC(=O)Nc2cccc(C(=O)OCc3cc(=O)n4c(C)csc4n3)c2)cc1", "max response, negative = inhibition": "inactive: -2.59%"},
      {"smiles": "O=C(Cn1c(C(=O)N2CCc3ccccc3C2)cc2sccc21)c1ccccc1", "Potency": "active: 25.1 µM"},
      {"smiles": "CCc1cccc(NC(=O)c2ccc3c(c2)c(C)c(C)n3Cc2ccc(F)cc2)c1", "Potency": "active: 15.8 µM"},
      {"smiles": "COC(=O)[C@@]1(Cc2ccc(F)cc2)[C@H]2c3cc(C(=O)N4CCCC4)n(Cc4ccc(C)c(F)c4F)c3C[C@H]2CN1C(=O)c1ccccc1", "Potency": "inconclusive: 20 µM [activator, partial curve]"},
      {"smiles": "O=S(=O)(c1ccc(-c2cnc(C3CC3)o2)cc1)N1CCN(c2ccccc2)CC1", "Potency": "inconclusive: 7.94 µM [activator, single point]"},
      {"smiles": "CC1=C(C(=O)OC2CCCC2)C(c2ccccc2C(F)(F)F)CC(=O)N1", "note": "(stereo not drawn)", "max response, negative = inhibition": "inactive: -0.929%"},
      {"smiles": "C=CCn1c(-c2ccoc2)n[nH]c1=S", "max response, negative = inhibition": "inactive: -6.12%"},
      {"smiles": "Cc1ccc(NC(=O)COC(=O)c2ccc3c(c2)OCO3)cc1S(=O)(=O)N1CCCCC1", "Potency": "inconclusive: 31.6 µM [inhibitor, single point]"},
      {"smiles": "O=C(O)CN1C(=O)C2C3CC(C2C1=O)C1C(c2ccccc2)c2sc(=O)[nH]c2SC31", "note": "(stereo not drawn)", "max response, negative = inhibition": "inactive: 9.8%"},
      {"smiles": "O=S(=O)(c1ccccc1)N1N=C(c2cccs2)CC1c1ccc(F)cc1", "note": "(stereo not drawn)", "Potency": "inconclusive: 39.8 µM [inhibitor, single point]"},
      {"smiles": "CCOC(=O)c1c(-c2ccccc2)nnn1-c1nc(OCC)nc(N2CCCCC2)n1", "Potency": "inconclusive: 3.98 µM [inhibitor, single point]"},
      {"smiles": "CNC(=O)Oc1ccc2c(c1)C1(C)CCN(C)C1N2C", "note": "(stereo not drawn)", "max response, negative = inhibition": "inactive: -0.33%"},
      {"smiles": "N#C/C(=C\\c1ccc(-c2ccc(F)cc2)o1)C(=O)Nc1nc(-c2cccs2)cs1", "Potency": "active: 6.31 µM"},
      {"smiles": "CCOC(=O)c1c(NC(=O)c2cc3n(n2)C(C(F)(F)F)CC(c2ccccc2)N3)sc(C)c1C", "note": "(stereo not drawn)", "Potency": "active: 15.8 µM"},
      {"smiles": "O=C(Cc1ccccc1)NCC(=O)OCC(=O)c1ccc(OC(=O)c2ccccc2)cc1", "Potency": "inconclusive: 39.8 µM [inhibitor, single point]"},
      {"smiles": "CCC(C(=O)C(C)C(O)C(C)CCc1ccc(C)c(O)c1C(=O)O)C1OC(CC)(C2CC[C@@](O)(CC)C(C)O2)CC1C", "note": "(stereo partly drawn)", "Potency": "inconclusive: 3.16 µM [activator, full curve]"}
    ]}
  ]
}
